{
  "source": "paper PMC12136788",
  "binders": {"B1": {"name": "chr5:75360489:75360590:+|3pUTR|ENSG00000113161|msi1|total|mutant (ssRNA)", "RNA": "GGGAGUUCUACAGUCCGACGAUCGCUCUUUCAGAGAGGUCUCAGGUUCUUUCCAUGCAGACUCCUCAGAUCUGAACACAGUUCCGUGCUUUACAUGCUGUGCUCUUUGAAGAGAUUUCAACAAGAAUAUUGUAUGUUAAAGCACAACAGAGGAUUGAGCAUCA"}, "B2": {"name": "chr11:61866962:61867357:+|3pUTR|ENSG00000134824|msi1|total|mutant (ssRNA)", "RNA": "GGGAGUUCUACAGUCCGACGAUCAGAUUCAGGGGAAGGGCAGGCACCAACAACUCAGAAUGGGGGCUUUCGGGGAGGGCGCCCCGUCCCCCCAGCUCUAAGCAGCCAGGAGGGACCUGCAUCUAAGCAUCUGGGUUGCCAUGGCAACAGAGGAUUGAGCAUCA"}, "B3": {"name": "chr13:25097967:25098071:+|CDS|ENSG00000151846|unk|total|mutant (ssRNA)", "RNA": "GGGAGUUCUACAGUCCGACGAUCAGAACUUCUUUAUAUGCUCGAGUCUCCAGAGUCACUCCGUUCUAAGGUUGAUGAAGCUGCCGCUGUACUACAAGCCCACCAAGCUAAAGAGGCUACCCAGAAAGCAGUUAACAGUGCUACCAACAGAGGAUUGAGCAUCA"}, "B4": {"name": "chr7:139028693:139028797:-|CDS|ENSG00000146858|unk|total|mutant (ssRNA)", "RNA": "GGGAGUUCUACAGUCCGACGAUCUUUCAGAUAAUCUCCACCUACAAGCAUAUGAAGCUGCACAAGAUGCUUGAAAAUACAGGCCGGAAUAUCCAAGAAGGACAGAGAAGUAUCAGCGAUAUGGUUUUGCGAUGCUUCACUGUGCAACAGAGGAUUGAGCAUCA"}, "B5": {"name": "chr11:4094911:4095012:+|5pUTR|ENSG00000167325|unk|FALSE|unique (ssRNA)", "RNA": "GGGAGUUCUACAGUCCGACGAUCAGCAGCGCCUGGAACCUAACCCUUCCCACUCUGUCACCUUCUCGAUCCCGCCGGCGCUUUAGAGCCGCAGUCCAGUCUUGGAUCCUUCAGAGCCUCAGCCACUAGCUGCGAUGCAUGUGACAACAGAGGAUUGAGCAUCA"}, "B6": {"name": "chr12:909583:909684:+|3pUTR|ENSG00000060237|unk|FALSE|bound_elsewhere (ssRNA)", "RNA": "GGGAGUUCUACAGUCCGACGAUCUAGCUCUGUCCUUUACUUAUUGAGACACUUUAACUUUUUCCUUUGUAUUUCCAUUGUAUUAGAUAAAUAAAUGUGAAUGUAAAAUUGUAUAAAUUACUGUACUUGAAUACUUCUGUUUCCCAACAGAGGAUUGAGCAUCA"}, "B7": {"name": "chr17:34256851:34257067:+|3pUTR|ENSG00000108691|msi1|total|mutant (ssRNA)", "RNA": "GGGAGUUCUACAGUCCGACGAUCUUAAGUAAUGUUAAUUCUUAUUUAAGUUAUUGAUGUUUUAAGUUUAUCUUUCAUGGUACCCGUGUUUUUCCGAUACAGAGACUUGGGGAAAUUGCUUUUCCUCUUGAACCACAGUUCUACCAACAGAGGAUUGAGCAUCA"}, "B8": {"name": "chr12:133204733:133204837:+|3pUTR|ENSG00000090612|unk|FALSE|unique (ssRNA)", "RNA": "GGGAGUUCUACAGUCCGACGAUCCAAAAAGAUAGUAGACAAUACACAGGAAAACUGAAUUUAGUAACCACUCUGAAAAUUUUUAGCAGCAAGUCAUACCUUUUUUUAAAAAGUUCAUACAGGUGAGGAACCAUGUUAAACGUUCAACAGAGGAUUGAGCAUCA"}, "B9": {"name": "ENSG00000067955:stop:overlap|stop_codon|ENSG00000067955|stop_codon|NA|stop_codon (ssRNA)", "RNA": "GGGAGUUCUACAGUCCGACGAUCAAAUGGAGGUGAGAGUUUCACAGCUGCUGGCAGUAACUGGCAAGAAGACAACAAGACCCUAGUCCUGGUUCCAAUUUAGGUGGUGGUGAUGACCUCAAACUUCGUUAAUUAAUAGCACAGCAACAGAGGAUUGAGCAUCA"}, "B10": {"name": "chr5:149857952:149860894:-|three_prime_utr|ENSG00000132915|control|control|control (ssRNA)", "RNA": "GGGAGUUCUACAGUCCGACGAUCACCACCCUUUCCUGGGAAGAGAUGACUCAAGCCAGUGGAAGACCACACACCUUGAGAAGUAGAAGAGUCAUAGGAUUUGAAAGCUGUUAGAGAAUUUAGCUUCCAGGACUGUUCAAUCUUCAACAGAGGAUUGAGCAUCA"}, "B11": {"name": "chr17:27756765:27757353:-|three_prime_utr|ENSG00000007171|control|control|control (ssRNA)", "RNA": "GGGAGUUCUACAGUCCGACGAUCCAAGUCUUAUUUCCUCAACGUUGCUCCCCAUCAAGCCCUUUACUUGACCUCCUAACAAGUAGCACCCUGGAUUGAUCGGAGCCUCCUCUCUCAAACUGGGGCCUCCCUGGUCCCUUGGAGCAACAGAGGAUUGAGCAUCA"}, "B12": {"name": "chr7:103374401:103374592:-|CDS|ENSG00000170615|control|control|control (ssRNA)", "RNA": "GGGAGUUCUACAGUCCGACGAUCCCUGCCCUAUGGGAGCUGCUGUUCCACAGCAUUCAUGAUGCAGUUUUAGGCAGCCAACUUAGAGAGGCACUUGCUGAACAGGAAGCCUCGGCUCCCCCUUCCCAGGAGGACUUGGAGCCCCAACAGAGGAUUGAGCAUCA"}, "B13": {"name": "chr1:67411267:67411372:-|3pUTR|ENSG00000142864|unk|FALSE|unique (ssRNA)", "RNA": "GGGAGUUCUACAGUCCGACGAUCAACUCAUUUCCAAACAUGUACCAUGUUUUAUAAACCUCUUGAUUUCCAGCAACAUACUAUAGAAAACACCUGCUACUCAAAACACAACUUCUCAGUGUCAUCCAUUGCUGUCGUGAGAGACAACAGAGGAUUGAGCAUCA"}, "B14": {"name": "chr11:22846921:22847509:-|three_prime_utr|ENSG00000255359|control|control|control (ssRNA)", "RNA": "GGGAGUUCUACAGUCCGACGAUCCUCCACCAUUUCGGAAAAAUAAACACAGUGCAAGUAUUUAAUAUCCAAGCUACAGGCUCUAGAAUUUUAUUAAAUGCCAUCUCUCACUACCAUAUUUUUCUUUCCUGUGGUAAACUUGAACAACAGAGGAUUGAGCAUCA"}, "B15": {"name": "ENSG00000124766:be:win_2401|3pUTR|ENSG00000124766|bound_else_gene|NA|bound_elsewhere_windowed (ssRNA)", "RNA": "GGGAGUUCUACAGUCCGACGAUCCAGUCAGUGGAGGGCGAGUGGUUUCGGAAAAAAAAAAAGAAAAAAAGAAAAAAAAAGAAAAAAAAAAGAUUUUUUUCUUCUCUUAAUCGGAAUCGUGAUGGUGUUGGAUUAUUUCAAUGGCAACAGAGGAUUGAGCAUCA"}, "B16": {"name": "chr1:193014253:193014354:-|3pUTR|ENSG00000116750|unk|total|mutant (ssRNA)", "RNA": "GGGAGUUCUACAGUCCGACGAUCUUAACCGGUAUAAGGAUUUUUCUUAUUAAUCUAAUAAAAUUCCUUAACCGGAAUUUCCACCGCUUAAGAGUGGUUUAUUUUAUCUGCAUCUUCUUUGGUGAUUGCAAAUCCCUUGUGAUACAACAGAGGAUUGAGCAUCA"}, "B17": {"name": "ENSG00000180900:stop:overlap|stop_codon|ENSG00000180900|stop_codon|NA|stop_codon (ssRNA)", "RNA": "GGGAGUUCUACAGUCCGACGAUCUGUGCAGCAGCCGCCGCCCCGUAAGGCCUGGGCGCCGUGGCCUGGGCCCUGUGCCCUCCUAGAGGAGCAGGCACCUCCCCCAGACUUGGGGUGGGGGCCCUGCCAGCUCCAGCACCACCCCAACAGAGGAUUGAGCAUCA"}, "B18": {"name": "chr20:63933867:63933968:+|3pUTR|ENSG00000101152|msi1|FALSE|unique (ssRNA)", "RNA": "GGGAGUUCUACAGUCCGACGAUCAUCAGAGUGGGCCCCUUGCCAGGUGGCUUUUCAGUUACAGAGUCCAGUGGACCAUUUUGUAGAACCAUGCAGCUCCCUGCGGAAGGUGGGGUAGGGUGGGAAAGAGGAGCAGGUCUGGAGCAACAGAGGAUUGAGCAUCA"}, "B19": {"name": "chr1:24654915:24655033:+|CDS|ENSG00000133226|unk|total|mutant (ssRNA)", "RNA": "GGGAGUUCUACAGUCCGACGAUCUCACGGUCACCACCAAAGAAGCCUCCCAAGAGGACAUCCAGCCCCCCUCGGAAAACUCGCCGGUUAUCUCCUUCAGCAAGUCCUCCAAGGCGAAGGCACAGGCCAUCACCUCCUGCAACUCAACAGAGGAUUGAGCAUCA"}, "B20": {"name": "chr17:69153304:69154009:-|three_prime_utr|ENSG00000154263|control|control|control (ssRNA)", "RNA": "GGGAGUUCUACAGUCCGACGAUCUGGGCAAAGAAGAUGCUGCUCUCAGUAUUUCACGGUACAGAGAGAAGUCUCACAAUUUGUAGCAGGAGGAAGGGGAAAAUAUGUCAUUUCUUCAUUAUAUAUUAAAAGGAAAUUAUAAACCAACAGAGGAUUGAGCAUCA"}, "B21": {"name": "ENSG00000167528:stop:overlap|stop_codon|ENSG00000167528|stop_codon|NA|stop_codon (ssRNA)", "RNA": "GGGAGUUCUACAGUCCGACGAUCCCCAGGACUUAGAGGAGAGGGACAUUCUGAGGGUCACAUAUACAGGUAAGAACCUAGAAUAGGCUUUCAGCCACUUCCUUCACAGUUCGGGACAUCAUCAUUCCAUGUUCGUUUAAUCCCCAACAGAGGAUUGAGCAUCA"}, "B22": {"name": "chr3:10101824:10101929:+|3pUTR|ENSG00000144554|unk|total|mutant (ssRNA)", "RNA": "GGGAGUUCUACAGUCCGACGAUCAAAAUCUCUGAGUCAUGAUUCUGGACUUUGGGAGCCCGUUUUGAAACUCUGAUUUAUUGCCGAACUCCGGCUUGUACCAAUUUUACAAAUAAAUUCUGUUCUAAGUUCUGCCUCAGUUGCCAACAGAGGAUUGAGCAUCA"}},
  "note": "The other results are listed elsewhere or left out.",
  "data": [
    {"molecular_target": "T1, UNK ZnF1-6 (called full-length) (human, UniProt Q9C0B0 30-357)", "T1 sequence": "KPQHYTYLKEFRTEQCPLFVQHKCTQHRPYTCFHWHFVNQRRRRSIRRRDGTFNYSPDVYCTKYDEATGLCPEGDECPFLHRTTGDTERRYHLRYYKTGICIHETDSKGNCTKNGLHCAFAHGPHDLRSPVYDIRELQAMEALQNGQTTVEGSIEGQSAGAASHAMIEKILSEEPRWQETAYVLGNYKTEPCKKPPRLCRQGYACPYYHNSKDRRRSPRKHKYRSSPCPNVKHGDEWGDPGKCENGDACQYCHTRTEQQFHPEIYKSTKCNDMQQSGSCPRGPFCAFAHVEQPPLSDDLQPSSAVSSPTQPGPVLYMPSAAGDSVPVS", "experiment": "nsRBNS (natural sequence RNA bind-n-seq); RBNS binding buffer (assumed for nsRBNS): 25 mM Tris pH 7.5, 150 mM KCl, 3 mM MgCl2, 0.01% Triton X-100, 500 ug/ml BSA, 20 U/ml SUPERase-In, 4 C; UNK is unkempt and MSI1 is Musashi-1; names of the RNAs are library labels; protein concentration not given here; high values mean tight binding", "units": {"binding signal": "enrichment R"}, "values": [
      {"binder": "B1", "binding signal": 0.227},
      {"binder": "B2", "binding signal": 0.845},
      {"binder": "B3", "binding signal": 0.61},
      {"binder": "B4", "binding signal": 0.382},
      {"binder": "B5", "binding signal": 0.88},
      {"binder": "B6", "binding signal": 12.7},
      {"binder": "B7", "binding signal": 1.13},
      {"binder": "B8", "binding signal": 3.23},
      {"binder": "B9", "binding signal": 0.965},
      {"binder": "B10", "binding signal": 0.809},
      {"binder": "B11", "binding signal": 0.605},
      {"binder": "B12", "binding signal": 0.733},
      {"binder": "B13", "binding signal": 0.583},
      {"binder": "B14", "binding signal": 0.713},
      {"binder": "B15", "binding signal": 0.947},
      {"binder": "B16", "binding signal": 0.372},
      {"binder": "B17", "binding signal": 0.699},
      {"binder": "B18", "binding signal": 1.29},
      {"binder": "B19", "binding signal": 0.653},
      {"binder": "B20", "binding signal": 0.799},
      {"binder": "B21", "binding signal": 0.514},
      {"binder": "B22", "binding signal": 0.533}
    ]}
  ]
}
